PMC4336329 (PLoS ONE, 2015)
About 2,200 (0.71%) of roughly 310,000 compounds showed an effect of 50% or more. The effect is printed as a negative number. The list shows a part of the results.

Target: human ether-à-go-go-related gene (hERG) potassium channel (human, UniProt Q12809)
Experiment: primary screen, population patch clamp on CHO cells stably expressing hERG

human ether-à-go-go-related gene (hERG) potassium channel, sequence (Q12809 whole entry, looked up): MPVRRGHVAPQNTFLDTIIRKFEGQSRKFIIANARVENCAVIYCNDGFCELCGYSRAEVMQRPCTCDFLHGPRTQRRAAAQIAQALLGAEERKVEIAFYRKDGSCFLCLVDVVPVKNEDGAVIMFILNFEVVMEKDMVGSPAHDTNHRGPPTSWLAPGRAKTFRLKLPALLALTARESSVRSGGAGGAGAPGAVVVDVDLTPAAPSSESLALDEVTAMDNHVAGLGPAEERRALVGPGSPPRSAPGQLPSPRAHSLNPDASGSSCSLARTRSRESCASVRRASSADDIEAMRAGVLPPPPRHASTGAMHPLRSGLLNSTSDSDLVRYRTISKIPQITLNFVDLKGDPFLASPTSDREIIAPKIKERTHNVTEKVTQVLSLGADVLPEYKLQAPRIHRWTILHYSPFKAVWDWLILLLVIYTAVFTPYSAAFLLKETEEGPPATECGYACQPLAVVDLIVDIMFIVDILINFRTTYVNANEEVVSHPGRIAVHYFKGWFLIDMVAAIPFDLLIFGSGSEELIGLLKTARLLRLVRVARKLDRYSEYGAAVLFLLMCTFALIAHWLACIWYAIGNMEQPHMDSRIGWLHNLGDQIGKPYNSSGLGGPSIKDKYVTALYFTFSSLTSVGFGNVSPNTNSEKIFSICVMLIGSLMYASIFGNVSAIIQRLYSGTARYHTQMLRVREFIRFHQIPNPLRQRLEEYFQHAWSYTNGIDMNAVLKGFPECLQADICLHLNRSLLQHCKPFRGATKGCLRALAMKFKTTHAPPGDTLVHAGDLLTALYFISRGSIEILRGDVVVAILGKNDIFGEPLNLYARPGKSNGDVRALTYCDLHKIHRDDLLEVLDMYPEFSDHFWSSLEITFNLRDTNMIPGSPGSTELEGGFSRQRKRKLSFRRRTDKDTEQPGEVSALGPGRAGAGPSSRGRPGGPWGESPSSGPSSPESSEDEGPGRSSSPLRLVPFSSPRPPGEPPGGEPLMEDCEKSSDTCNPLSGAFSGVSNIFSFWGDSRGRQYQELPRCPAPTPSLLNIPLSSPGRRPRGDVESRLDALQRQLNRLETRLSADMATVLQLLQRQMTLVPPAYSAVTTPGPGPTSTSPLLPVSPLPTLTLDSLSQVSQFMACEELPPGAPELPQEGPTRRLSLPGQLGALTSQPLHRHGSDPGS

Row | SMILES | hERG current change (%, negative = inhibition) at 1uM
1 | CCc1ccc(C(C(=O)NC2CCCCC2)N(C(=O)c2csnn2)C2CC2)cc1 (stereo not shown) | 5.76%
2 | O=C(Cn1cnc2ccccc21)N/N=C/c1ccccn1 | 11.6%
3 | CCOC(=O)[C@H]1[C@H]2COc3cc(OC)ccc3[C@@H]2N2C(=O)c3ccc(C)cc3NC(=O)[C@@]12C | 9.49%
4 | Cn1cnc(S(=O)(=O)N2CCN(c3cccc(Cl)c3)CC2)c1 | 12.8%
5 | C=CCn1c(CNC(=O)c2ccccc2F)nnc1SCc1nc2ccccc2c(=O)[nH]1 | 17.1%
6 | O=C(CN1CCCN(S(=O)(=O)c2ccc(F)cc2)CC1)Nc1cccc(F)c1 | -2.54%
7 | COc1cc(-c2nnc(CSc3nnc(N)s3)o2)cc(OC)c1OC | 7.02%
8 | Cc1nn(Cc2ccc(F)cc2)c(C)c1NC(=O)c1noc2c1CCc1ccccc1-2 | -1.28%
9 | COc1ccc(C)c(-n2c(=O)n(Cc3ccccc3)c(=O)c3[nH]cnc32)c1 | 10.5%
10 | Oc1ccccc1C1=Nc2ccccc2N=C(c2cccs2)C1 | 21.3%
11 | COc1cc(C(=O)NCCOc2cccc3cccnc23)cc(OC)c1OC | 4.83%
12 | Cc1ccc(Oc2ccc(-c3nc(N)nc(N)n3)cc2)cc1 | 17.1%
13 | O=C(NC1CCCC1)C(c1ccncc1)N(C(=O)c1ccco1)c1ccc(Cl)cc1 (stereo not shown) | 11.6%
14 | CCC(=O)Nc1ccc(C(=O)CSc2nnc(CNc3ccc(Cl)cc3)o2)cc1OC | 9.73%
15 | O=C(CN1CCCCC1)Nc1cc(S(=O)(=O)N2CCOCC2)ccc1N1CCCC1 | 6.07%
16 | COc1ccc(/C=N/NC(=O)c2cccnc2)cc1COc1ccc([N+](=O)[O-])cc1 | 8.43%
17 | Cc1cccc(C)c1NC(=O)CSc1nnc(-c2ccccc2)n1Cc1ccc2c(c1)OCO2 | 3.17%
18 | CCOC(=O)c1cnc(-c2ccccc2)[nH]c1=O | 8.89%
19 | CC(Sc1nnc(C(C)N(C)C)n1-c1ccc(Cl)cc1)C(=O)Nc1ccc2c(c1)OCO2 (stereo not shown) | 11.6%
20 | CC1CC(C)CN(C(=O)COC(=O)c2cccc([N+](=O)[O-])c2)C1 (stereo not shown) | 10.1%
21 | COc1ccc(NC(=O)c2sc3ncn(CC(=O)N4CCN(c5ccccn5)CC4)c(=O)c3c2C)c(OC)c1 | 14.9%
22 | CC(Nc1c([N+](=O)[O-])c(=O)oc2ccccc12)C(Cl)c1ccccc1 (stereo not shown) | 7.05%
23 | N#CCCN(C(=O)CCl)c1cccc(Cl)c1 | 9.88%
24 | Cc1csc(NC(=O)CSc2nccn2C)n1 | 17.6%
25 | O=C(NCc1ccco1)c1ccccc1NS(=O)(=O)c1cccs1 | 9.76%
26 | COc1ccc(NC(=O)/C(Cl)=C(/Cl)S(=O)Cc2ccc(C)cc2)cn1 (stereo not shown) | 6.6%
27 | Oc1ccc(Oc2ccc(Oc3ccc(O)cc3)cc2)cc1 | 11%
28 | O=C(CSc1nnc(CNC(=O)c2ccco2)o1)Nc1ccccc1C(F)(F)F | 23.1%

Row | SMILES | hERG current change (%, negative = inhibition) at 1uM
29 | Cc1nn(-c2ccccc2)c(Cl)c1/C=N\NC(=O)c1cncc(Br)c1 | 5%
30 | COc1ccc(Sc2nc3ccccc3n3c(C(F)(F)F)nnc23)cc1 | 12.8%
31 | O=C(NCc1nc2ccccc2[nH]1)C1=C[C@H](C2CC2)C[C@H](OCCCCO)O1 | 2.86%
32 | Cc1cc(C)c(S(=O)(=O)N2CCN(c3ccc([N+](=O)[O-])c(NCC4CCCO4)c3)CC2)c(C)c1 (stereo not shown) | 21.8%
33 | CC(C)CN=C(NS(=O)(=O)c1ccccc1)C(Cl)(Cl)Cl | 12.7%
34 | CN(CCC1CCOCC1)C(=O)CC1C(=O)NCCN1Cc1cccc(F)c1 (stereo not shown) | 2.8%
35 | CCN(CC)CCC(=O)N1c2ccccc2CCc2ccc(NC(=O)OC(C)C)cc21 | -5.39%
36 | COc1ccc(OCCSc2nc(N)cc(=O)[nH]2)cc1 | 2.03%
37 | COc1ccc(OC)c(NC(=O)c2cc3ccccc3cc2OC)c1 | 4.18%
38 | CCn1c(SCC(=O)c2cccs2)nnc1-c1ccco1 | 10.3%
39 | CC(C)(C)NCCOc1ccc(Br)cc1.Cl | 6.12%
40 | c1ccc(-c2cc(CSc3nc4ccccc4[nH]3)on2)cc1 | 13.3%
41 | CC1(C)CC(=O)C=C(NCCN2CCN(C(=S)Nc3ccc(F)cc3)CC2)C1 | 10.3%
42 | O=C(Nc1ccc(Cl)cc1)c1sccc1-n1cccc1 | 5.81%
43 | Cn1c(CNC(=O)c2ccccc2F)nnc1SCC(=O)Nc1nncs1 | 8.22%
44 | CCc1ccc2c(c1)/C(=N/N(C)C(=S)NC)C(=O)N2 | 7.89%
45 | COc1ccc(S(=O)(=O)N(CC(=O)NC2CCCC2)c2ccccc2OC)cc1 | 11%
46 | COc1cc(/C=C2\N=C(C)OC2=O)cc(Cl)c1OC(C)=O | 15.9%
47 | Cc1ccc(C)c(-n2cc[nH]c2=S)c1 | 11%
48 | Cc1ccc(NC(=O)CN(c2ccc(Cl)cc2)S(=O)(=O)c2cc([N+](=O)[O-])ccc2Cl)cc1 | 7.07%
49 | CCOC(=O)Cn1c(=O)c2c(nc(N3CCCCC3)n2Cc2ccccc2)n(C)c1=O | 0.644%
50 | COc1cc(C=O)ccc1OCC(=O)Nc1ccccc1N1CCOCC1 | 20%
51 | Cc1nccn1CCCNC(=O)C1CCC(=O)N(Cc2ccccc2F)C1 (stereo not shown) | 9.89%
52 | CCOC(=O)CCC(=O)N1CCOCCOCCN(C(=O)CCC(=O)OCC)CCOCC1 | 5.29%
53 | CCOc1ccccc1CNC(=O)c1c([N+](=O)[O-])c(C)nn1C | 0.0727%
54 | COc1ccccc1NC(=O)CNC(=O)Cn1c(C)cc2ccccc2c1=O | 14.1%
55 | COc1ccc(/C=N/NC(=O)c2nn(-c3ccccc3)c(=O)c3c(N)scc23)cc1 | 4.99%
